± gives the standard deviation of the averaged measurements. Some of the results follow.

The assay relates to PfAP2-G AP2 domain (GST-tagged). The assay is described as follows: gcPBM binding intensity (ln(normalized median fluorescence intensity)); higher = stronger DNA binding. The essentials:
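An Agilent 4 × 180k array of primer-extended double-stranded 36-bp intergenic genomic probes, with negative controls, was incubated for 1 h with GST-tagged P. falciparum DNA-binding domains expressed in E. coli. Alexa488 anti-GST antibody detected bound protein, scanned at 488 nm. Binding intensity is the highest Masliner-normalised natural-log median intensity across replicate spots of either probe orientation.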
Regarding “ATATGTAGAATAAAAAAAAAAAAAAAAAAAAAAAAT [CACACA_negctrl_site621]”, the “gcPBM binding intensity (ln)” value is 9.66 ± 0.23. Turning to “TAAAAATATATGTATACACACATATATATATATATA [CACACA_site3951]”, the “gcPBM binding intensity (ln)” value turned out to be 10 ± 0.38.

With “AAAAAAAGTGACTCCTTACACACTTTACATAATTTA [CACACA_site820]”, the “gcPBM binding intensity (ln)” value came to 10.09 ± 0.057.

As for “AATATTGAAATAACGCGTACAAAAAAAAGTTATATT [XGTACX_site6559]”, the “gcPBM binding intensity (ln)” value was 11.5 ± 0.71. With “GTTAAGTGTATATATACACACATATGTAATACATGA [CACACA_site3048]”, the “gcPBM binding intensity (ln)” value turned out to be 10.2 ± 0.11. Consider “TTAATTTATAAAAACACACACAGGTAAAAAGGTGCA [CACACA_site1177]”, for which the “gcPBM binding intensity (ln)” value is 10.29 ± 0.071. On to “ATGTTATATTATAAAAGTACATTTTATTTTTATTTA [XGTACX_site4365]”, for which the “gcPBM binding intensity (ln)” value is 11.1 ± 0.65.

For the sequence “TATATTTATTATAACACACACATATTTATATTATAG [CACACA_site6628]”, the “gcPBM binding intensity (ln)” value is 9.94 ± 0.099.

For “TTTCTTTTTAAATATATACACACCGGGTGTACATAT [CACACA_site3345]”, the “gcPBM binding intensity (ln)” value is 11.5 ± 0.98. Take “AGGTAATATACTAAATGTACAGAAAAACGAATTTTT [XGTACX_site2977]”: the “gcPBM binding intensity (ln)” value is 10.8 ± 0.4. Next, “AATATAACTTTTTGCACACTTAATTTTTTTTTTTAA [CACACA_site3365]”: 10.13 ± 0.064; “TAACAAAAAGCACTTAGTACATATATATATATATAT [XGTACX_site1099]”: 10.8 ± 0.52. To “TAATATCAAACCTATAGTACATAAGGTATAAAAAAG [XGTACX_site3533]” belongs 10.8 ± 0.56. As for “GTATTATTTTATGATGCATGTGTATTTCATATATGC [TGCATGCA_site660]”, the “gcPBM binding intensity (ln)” value is 9.975 ± 0.021. “AATGAAATAATACAATGTACGTTAAAAAAAAATAAA [XGTACX_site7928]”: the “gcPBM binding intensity (ln)” value worked out at 11.2 ± 0.73. For “AGAACATTTTCTCAGTGTACTTATATATTTGACATA [XGTACX_site6541]”, the “gcPBM binding intensity (ln)” value amounted to 11.4 ± 0.94. Turning to “ACTAAACAATATGTATGTACATATTTTACATATAAT [XGTACX_site3318]”, the “gcPBM binding intensity (ln)” value stood at 11.3 ± 0.76.

With “TATACAATATTTATAACACACATATTTATATAAACT [CACACA_site6932]”, the “gcPBM binding intensity (ln)” value is 9.885 ± 0.078. As to “ACTTCCTATATTTATGCATGCATTTTATTAAAAAAT [TGCATGCA_site747]”, the “gcPBM binding intensity (ln)” value was 10.1 ± 0.16. As for “ATATATCATGAACCTTGTACGTATATATATATATAT [XGTACX_site239]”, the “gcPBM binding intensity (ln)” value came to 11.4 ± 0.97. Take “GATGGAATCTAATTTACATGCAGTGATATAATAAAT [TGCATGCA_site1031]”: the “gcPBM binding intensity (ln)” value was 9.77 ± 0.18. To “TAATAATAACCGTTATGTACACAATTTTGTGAACAT [XGTACX_site8053]” belongs 11.6 ± 0.95; to “ATTTATTTATTTATATGTACATATATATATATATAT [XGTACX_site339]”, 11.4 ± 0.99. “TACAGACAGAAACACACACACACGCATAAAAAAAAA [CACACA_site1514]”: the “gcPBM binding intensity (ln)” value is 10.3 ± 0.38.

Take “TTTTTTTTTTTTTTAACACACATATAAATATTTTTC [CACACA_site6985]”: the “gcPBM binding intensity (ln)” value amounted to 9.75 ± 0.33.

The record behind these values is the supplement of paper PMC11417369.
